Assay results: the supplement of paper PMC10126150
Values marked as one replicate rest on one cluster of the flow cell; about a third of the high ones do not repeat.

System: ATP
Assay: switch fluorescence ratio, 500 uM ATP over buffer (Cy3 cluster intensity, sum of 5 cycles each) (fold (ratio)); higher = stronger signal-on switching upon ATP binding; sequences stand for … in TCGTCGGCAGCGTCAGATGTGTATAAGAGACAGTTTTTTTTTTTTTTTTTTTTTTTTT…TC
Settings: aptamer strand: ATP DNA aptamer (quencher-CACCTGGGGGAGTATTGCGGAGGAAGG + anchor), 100 nM annealed; ATP concentration: 500 uM; one replicate
Outline: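 Clusters with intensities outside 100-1000 RFU were excluded. The remaining Cy3-labelled switching-strand clusters on a modified Illumina MiSeq flow-cell had been annealed to 100 nM quencher-labelled ATP aptamer and imaged in selection buffer, then after 15 min with 500 uM ATP at 22 °C, for five cycles separated by NaOH stripping and re-annealing. The fluorescence ratio, averaged per switch-domain sequence, is each cluster's summed target-cycle Cy3 intensity over its summed buffer-cycle Cy3 intensity.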
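Also: ATP exposure 15 min at 22 °C before imaging.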

ACGGACGGAT
switch fluorescence ratio: 1.08

TGTGACGTG
switch fluorescence ratio: 0.951

CTGCGACTTA
switch fluorescence ratio: 0.97

TGACATGTGG
switch fluorescence ratio: 0.983

CATCAATACT
switch fluorescence ratio: 3.86

GGTAGAACAG
switch fluorescence ratio: 0.98

AGGCACATGG
switch fluorescence ratio: 0.996

TATGGGATAA
switch fluorescence ratio: 0.988

CAGGACGGGA
switch fluorescence ratio: 1.04

CGACCAACTC
switch fluorescence ratio: 2.24

CCCGCTTGGA
switch fluorescence ratio: 1.17

AGGTGCGCGG
switch fluorescence ratio: 1

GACGAGAGAG
switch fluorescence ratio: 1.01

CACGGGCAGC
switch fluorescence ratio: 1.08

TTTGATGGAA
switch fluorescence ratio: 0.974

TGAGCGGCCG
switch fluorescence ratio: 1

TTTCATATTG
switch fluorescence ratio: 0.984

AATATGTTAA
switch fluorescence ratio: 1.03

CTATTCCGCC
switch fluorescence ratio: 2.18

GGGTGTCTGT
switch fluorescence ratio: 0.988

CCCGTGGGGT
switch fluorescence ratio: 0.983

CGGTAGTAGC
switch fluorescence ratio: 1.02

CACAACGGGG
switch fluorescence ratio: 1.01

ATAAGAGGGG
switch fluorescence ratio: 1

TTTTTCTGA
switch fluorescence ratio: 0.981

CATTGCTGTT
switch fluorescence ratio: 1

CCGTCTAAAC
switch fluorescence ratio: 3.13

CCTTGAAGTA
switch fluorescence ratio: 1

CTGAGAATCG
switch fluorescence ratio: 0.976

GGTGGACGTT
switch fluorescence ratio: 0.968

CCGTATGAGC
switch fluorescence ratio: 1.1

GTTGAGCTGT
switch fluorescence ratio: 1.02

AGGCGCGCTG
switch fluorescence ratio: 0.951

GCGAACACTT
switch fluorescence ratio: 1.02

TCAACGTGG
switch fluorescence ratio: 0.955

AGCTGGTGGT
switch fluorescence ratio: 0.998

GCCTGCGTGG
switch fluorescence ratio: 1

TTCGACTGGG
switch fluorescence ratio: 1.01

CAGTGGGCAC
switch fluorescence ratio: 0.964

TTAGGAATCT
switch fluorescence ratio: 0.979

AGGCGAATGC
switch fluorescence ratio: 0.998

AACGGTAGGA
switch fluorescence ratio: 1.02

CTGCTAATTA
switch fluorescence ratio: 0.974

ACTGGGGGTC
switch fluorescence ratio: 0.986

CAGTTGGTTG
switch fluorescence ratio: 1.01

AATAGATTAC
switch fluorescence ratio: 1.04

AAAATGAGGG
switch fluorescence ratio: 0.978

GGATAACCTG
switch fluorescence ratio: 1.06

TGGTGTCTGT
switch fluorescence ratio: 0.987

TTTAATATTG
switch fluorescence ratio: 1.04

TATAGGGGA
switch fluorescence ratio: 1.04

TGCGAATCGG
switch fluorescence ratio: 0.991

CGAAAACATC
switch fluorescence ratio: 1.01

GGGCCAAGTG
switch fluorescence ratio: 0.999

GCCTTGTGCT
switch fluorescence ratio: 0.991

CTATGGCATC
switch fluorescence ratio: 1.08

TCGCCTCGAT
switch fluorescence ratio: 1.02

GAGATGACTT
switch fluorescence ratio: 1.07

CCTAACTGGT
switch fluorescence ratio: 1.02

ACAATTTTCG
switch fluorescence ratio: 0.982

GGCCTCATTT
switch fluorescence ratio: 1

TTGCAGACTA
switch fluorescence ratio: 0.991

GGGTATTTAT
switch fluorescence ratio: 1.04

TGGACAAGCA
switch fluorescence ratio: 1.01

GGCGATCGAT
switch fluorescence ratio: 1.03

CGAGTGAGCG
switch fluorescence ratio: 0.96

CATTAGTAAC
switch fluorescence ratio: 0.999

CGTTCGTAAT
switch fluorescence ratio: 3.8

AATTGTAAGG
switch fluorescence ratio: 1.01

TACATGGGGT
switch fluorescence ratio: 1.01

CTATCGGTCT
switch fluorescence ratio: 0.945

GCGCGATATG
switch fluorescence ratio: 1.56

AATTGTTTG
switch fluorescence ratio: 1

TAACCAGGCG
switch fluorescence ratio: 1.24

CAGGGCCCCA
switch fluorescence ratio: 0.958

CTCCGGCAGG
switch fluorescence ratio: 2.36

ATTCCCAAGG
switch fluorescence ratio: 1.46

GGTAGGGAAG
switch fluorescence ratio: 0.979

TAGAGGTGCA
switch fluorescence ratio: 1

GAAAGGAATC
switch fluorescence ratio: 1.03

AAGAGCCTT
switch fluorescence ratio: 1.01

GTACTTACAT
switch fluorescence ratio: 1.22

GCAAACCATG
switch fluorescence ratio: 1.05

CTCCTGCGCC
switch fluorescence ratio: 4.23

TAGCGGGACG
switch fluorescence ratio: 1.07

TGGGACCGGT
switch fluorescence ratio: 1.01

CCGGTGATAT
switch fluorescence ratio: 1.38

GTGCACAGTG
switch fluorescence ratio: 1.01

TAGGATCCCA
switch fluorescence ratio: 1.06

ATATTAGTGT
switch fluorescence ratio: 0.991

TTTCGATGT
switch fluorescence ratio: 0.972

TGAAGGTTG
switch fluorescence ratio: 0.977

AAATCAAGGT
switch fluorescence ratio: 1.02

GGTAATTAAC
switch fluorescence ratio: 0.982

AGCCCGGGGG
switch fluorescence ratio: 1.1

CTGGTAGTAG
switch fluorescence ratio: 1.01

GACATCCGGA
switch fluorescence ratio: 0.995

AACCATGCCG
switch fluorescence ratio: 1.01

CAAATGTGGT
switch fluorescence ratio: 0.995

CGTCTGTTGT
switch fluorescence ratio: 1.06

TGCCTTTACA
switch fluorescence ratio: 0.981

CTGGATCAAC
switch fluorescence ratio: 1.09

AGGACGAGAT
switch fluorescence ratio: 0.987

ATTAGTAGAG
switch fluorescence ratio: 1.03

CGAATTCCG
switch fluorescence ratio: 0.842

GACAACCAGT
switch fluorescence ratio: 1.05

GTTCATTGGT
switch fluorescence ratio: 1.04

GGGAGCGTCG
switch fluorescence ratio: 0.94

AAATACTGCG
switch fluorescence ratio: 1.04

CAGTAAGACT
switch fluorescence ratio: 1.52

GATTGGGCTA
switch fluorescence ratio: 0.982

CGACCACTCG
switch fluorescence ratio: 1.02

CCTGAAGGAA
switch fluorescence ratio: 1.04

ATACGCCTCA
switch fluorescence ratio: 1.09

GCTCGGGATC
switch fluorescence ratio: 1.09

TTTGAATTCC
switch fluorescence ratio: 1.06

GTTATTCAGG
switch fluorescence ratio: 1.01

CCCGCCAAAA
switch fluorescence ratio: 1.17

ACACCGCTAG
switch fluorescence ratio: 2.22

CCCAACTATC
switch fluorescence ratio: 1.16

GAAGCTGAGC
switch fluorescence ratio: 1.05

ACGGTTTATT
switch fluorescence ratio: 1.04

TCCGGTCCTT
switch fluorescence ratio: 1.04

CACCTTCTCA
switch fluorescence ratio: 1.19

CGGACCACGT
switch fluorescence ratio: 1.01

GATTCCGCGC
switch fluorescence ratio: 2.22

ACTTTCTGGG
switch fluorescence ratio: 0.981

GATCTTTTAA
switch fluorescence ratio: 1.02

CCACATGGCA
switch fluorescence ratio: 1.01

TAGACTTCCG
switch fluorescence ratio: 1.03

ATCTGCATCG
switch fluorescence ratio: 1.08

ATCTACTAGC
switch fluorescence ratio: 1.06

TCGGGCCGCG
switch fluorescence ratio: 0.985

ACATATCCAT
switch fluorescence ratio: 1.03

GGATTAAAAA
switch fluorescence ratio: 1.01

GAAACAATGT
switch fluorescence ratio: 1.04

ACTGCCCCGG
switch fluorescence ratio: 4.26

TGGCGGGAAT
switch fluorescence ratio: 0.979

TAGCAGGATC
switch fluorescence ratio: 1.08

GAGGCAAGGG
switch fluorescence ratio: 1.03

GGGCCGAATT
switch fluorescence ratio: 1.02

CCCCGGGAGA
switch fluorescence ratio: 1.14

GGTGGAGAA
switch fluorescence ratio: 0.961

TTTAACCAAC
switch fluorescence ratio: 1.09

GTACCACACA
switch fluorescence ratio: 1.24

TCAGACCAGG
switch fluorescence ratio: 1.02

GTACAGTATC
switch fluorescence ratio: 1.11

TCCAGAGGGG
switch fluorescence ratio: 1.03

CGAGGTAAAC
switch fluorescence ratio: 1.63

TTGACTGTG
switch fluorescence ratio: 0.974

CCCTCGTGTG
switch fluorescence ratio: 0.955

CTTTTCAATG
switch fluorescence ratio: 1.02

CACGGCCGCT
switch fluorescence ratio: 1.06

AGATAGTGCA
switch fluorescence ratio: 0.99

TATTTTGGTA
switch fluorescence ratio: 0.999

AGAAGCGGTA
switch fluorescence ratio: 1.02

TCTCGCTTTC
switch fluorescence ratio: 2.49
